Measurements as given in PubChem BioAssay (Tox21).
The shares of active, inactive and inconclusive entries below differ from those in the screen. Potencies of inconclusive entries are doubtful fits and often do not repeat. Active and inactive are the calls of the source. Unless noted, calls follow the shape of the dose curve; as a rule, active = well fitted curve in the direction sought with a large enough effect in the repeat runs; inconclusive = weak or mixed curves; inactive = no such curve, though single readings can be large; an effect the other way counts as inactive or inconclusive.

Legend:
[1] = molecular target: Estrogen receptor beta (Homo sapiens) (UniProt Q92731); assay: qHTS assay to identify small molecule antagonists of the estrogen receptor beta (ER-beta) signaling pathway (AID 1259378; active = well fitted inhibition curve with a large enough effect in the signal ratio in the repeat runs, not every such curve was filed as active; inconclusive = weak or mixed curves, or effect the other way; inactive = no such curve, though single readings can be large or run the other way; the % refers to the signal ratio; as to activity, negative = inhibition: % is scaled to controls: 0 for no effect and ±100 for the full control effect); details: ER-beta-UAS-bla HEK293T, beta-lactamase FRET ratio, 16 h; activity, negative = inhibition: at 92.4 µM (top of the series) unless noted
Chain of UniProt Q92731 (Q92731 whole entry, looked up): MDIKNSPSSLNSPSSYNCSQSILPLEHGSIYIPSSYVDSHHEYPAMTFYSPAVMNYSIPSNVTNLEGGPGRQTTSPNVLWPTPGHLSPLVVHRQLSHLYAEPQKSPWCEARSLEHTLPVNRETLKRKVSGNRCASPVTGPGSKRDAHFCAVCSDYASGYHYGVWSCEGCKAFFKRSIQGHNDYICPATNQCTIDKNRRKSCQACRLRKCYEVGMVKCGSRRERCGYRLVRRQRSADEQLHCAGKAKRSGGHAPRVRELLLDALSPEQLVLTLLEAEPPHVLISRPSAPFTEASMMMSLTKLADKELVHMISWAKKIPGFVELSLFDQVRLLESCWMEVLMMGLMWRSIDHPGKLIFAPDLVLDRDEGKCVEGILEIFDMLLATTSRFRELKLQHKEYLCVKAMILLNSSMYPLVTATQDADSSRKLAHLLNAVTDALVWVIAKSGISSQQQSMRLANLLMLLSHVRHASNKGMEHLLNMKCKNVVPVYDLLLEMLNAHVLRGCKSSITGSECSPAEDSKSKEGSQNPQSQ
How it was run: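 ER-beta-UAS-bla HEK293T (GripTite) cells in 2% charcoal-stripped FBS medium were preincubated 6 hr at 37C, dosed with compound, then stimulated with 1 nM E2 (final) for 16 hr; beta-lactamase reporter read by B/G FRET fluorescence after 2 hr substrate loading.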

[2] = qHTS assay to identify small molecule agonists of the estrogen receptor beta (ER-beta) signaling pathway - cell viability counter screen (AID 1259380); also: nearly all actives have a fitted effect of over 30% in size
How it was run: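 Compounds dissolved in DMSO were pin-transferred onto ER-beta-UAS-bla HEK293T cells that had settled 6 hr, and exposure ran 16 hr at 37C. Following the reporter read, CellTiter-Glo luminescence after 30 min at room temperature indicated cytotoxicity.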

[3] = qHTS assay to identify small molecule antagonists of the estrogen receptor beta (ER-beta) signaling pathway - cell viability counter screen (AID 1259382); also: nearly all actives have a fitted effect of over 55% in size
How it was run: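 CellTiter-Glo ATP luminescence measured after the LiveBLAzer read in the same wells; ER-beta-UAS-bla HEK293T cells, 16 hr compound treatment with 1nM 17-beta-estradiol agonist at 37C, 5% CO2.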

[4] = molecular target: Thyrotropin receptor (Homo sapiens) (UniProt P16473); assay: qHTS assay to identify small molecule antagonists of the thyroid stimulating hormone receptor (TSHR) signaling pathway (AID 1259385; calls by dose curve; also: nearly all actives have a fitted effect of over 20% in size); details: TSHR-HEK293 cAMP HTRF, TSH-stimulated antagonist mode; activity change, negative = inhibition: at 92.4 µM (top of the series) unless noted
Chain of UniProt P16473 (P16473 whole entry, looked up): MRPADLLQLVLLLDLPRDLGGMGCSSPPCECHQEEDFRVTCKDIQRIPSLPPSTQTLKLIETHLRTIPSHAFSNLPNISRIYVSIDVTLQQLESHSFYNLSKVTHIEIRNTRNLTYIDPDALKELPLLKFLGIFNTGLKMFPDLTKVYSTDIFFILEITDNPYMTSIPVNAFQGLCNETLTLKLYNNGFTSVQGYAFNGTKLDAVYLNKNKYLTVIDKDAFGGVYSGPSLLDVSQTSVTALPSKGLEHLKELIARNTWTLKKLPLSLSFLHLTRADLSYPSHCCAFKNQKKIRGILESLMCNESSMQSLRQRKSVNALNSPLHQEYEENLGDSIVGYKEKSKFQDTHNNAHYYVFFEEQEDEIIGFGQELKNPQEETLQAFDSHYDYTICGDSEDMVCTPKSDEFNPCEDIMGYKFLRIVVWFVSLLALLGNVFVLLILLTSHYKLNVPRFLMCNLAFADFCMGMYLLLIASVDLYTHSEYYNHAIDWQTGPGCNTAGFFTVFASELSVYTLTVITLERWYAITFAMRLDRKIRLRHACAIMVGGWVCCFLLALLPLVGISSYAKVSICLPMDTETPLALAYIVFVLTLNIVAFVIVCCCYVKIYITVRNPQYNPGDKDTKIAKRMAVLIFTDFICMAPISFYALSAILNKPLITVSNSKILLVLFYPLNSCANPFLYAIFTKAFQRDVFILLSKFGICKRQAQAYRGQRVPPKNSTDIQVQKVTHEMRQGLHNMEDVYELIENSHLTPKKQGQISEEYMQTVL
How it was run: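 TSHR-HEK293 cells were plated and held 18 h at 37C/5% CO2, then given compound plus Ro20-1724 and stimulated with TSH at 1.5 ng/mL final. After 30 min at room temperature, cAMP was detected with cAMP-d2/anti-cAMP-cryptate (1 h) by fluorescence.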

[5] = molecular target: Progesterone receptor (Homo sapiens) (UniProt P06401); assay: qHTS assay to identify small molecule antagonists of the progesterone receptor (PR) signaling pathway (AID 1346795; active = well fitted inhibition curve with a large enough effect in the signal ratio in the repeat runs, not every such curve was filed as active; inconclusive = weak or mixed curves; the % refers to the signal ratio; as to activity change, negative = inhibition: % is scaled to controls: 0 for no effect and ±100 for the full control effect); details: PR-UAS-bla HEK293T, beta-lactamase FRET ratio, 16 h; activity change, negative = inhibition: at 92.4 µM (top of the series) unless noted
Chain of UniProt P06401 (P06401 whole entry, looked up): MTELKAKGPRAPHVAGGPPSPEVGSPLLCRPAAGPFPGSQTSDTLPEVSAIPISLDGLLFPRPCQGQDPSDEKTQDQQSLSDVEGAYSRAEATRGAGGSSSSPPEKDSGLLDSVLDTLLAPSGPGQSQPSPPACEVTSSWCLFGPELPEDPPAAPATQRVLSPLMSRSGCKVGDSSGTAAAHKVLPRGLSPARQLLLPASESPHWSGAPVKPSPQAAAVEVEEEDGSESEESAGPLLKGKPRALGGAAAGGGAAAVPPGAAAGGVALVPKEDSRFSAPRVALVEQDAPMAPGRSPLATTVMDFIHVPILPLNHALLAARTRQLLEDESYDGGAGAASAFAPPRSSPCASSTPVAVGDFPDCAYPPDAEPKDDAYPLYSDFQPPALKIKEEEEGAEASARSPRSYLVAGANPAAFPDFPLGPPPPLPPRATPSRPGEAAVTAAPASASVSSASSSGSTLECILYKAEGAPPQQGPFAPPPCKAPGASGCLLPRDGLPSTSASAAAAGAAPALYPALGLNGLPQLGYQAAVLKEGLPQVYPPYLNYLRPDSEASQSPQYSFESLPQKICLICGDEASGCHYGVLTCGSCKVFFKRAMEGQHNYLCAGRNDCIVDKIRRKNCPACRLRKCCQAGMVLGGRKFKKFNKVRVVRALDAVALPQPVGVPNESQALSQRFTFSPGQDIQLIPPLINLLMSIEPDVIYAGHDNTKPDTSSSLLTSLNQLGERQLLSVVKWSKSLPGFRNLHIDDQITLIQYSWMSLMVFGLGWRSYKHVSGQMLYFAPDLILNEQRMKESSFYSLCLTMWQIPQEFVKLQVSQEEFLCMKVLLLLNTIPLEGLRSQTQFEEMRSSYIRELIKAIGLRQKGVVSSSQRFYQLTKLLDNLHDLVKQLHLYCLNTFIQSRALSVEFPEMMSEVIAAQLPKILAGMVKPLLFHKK
How it was run: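 After 6 hr plating at 37C in 2% stripped-serum medium, PR-UAS-bla HEK293T cells got compounds, then 1 nM R5020. Sixteen hours later, LiveBLAzer substrate was applied for 2 hr at room temperature and fluorescence was recorded.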

[6] = qHTS assay to identify small molecule antagonists of the progesterone receptor (PR) signaling pathway - cell viability counter screen (AID 1346798); also: nearly all actives have a fitted effect of over 50% in size
How it was run: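 Viability was determined by ATP-based luminescence (CellTiter-Glo) in PR-UAS-bla HEK293T cells cultured in 2% charcoal-stripped serum and incubated 16 hr with compounds under R5020 stimulation.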

[7] = qHTS assay to identify small molecule agonists of the progesterone receptor (PR) signaling pathway - cell viability counter screen (AID 1346799; calls by dose curve; also: nearly all actives have a fitted effect of over 45% in size)
How it was run: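 Viability was scored by ATP luminescence (CellTiter-Glo, 30 min, room temperature) in the same wells used for the reporter readout, after 16 hr compound exposure of PR-UAS-bla HEK293T cells.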

[8] = qHTS assay to identify small molecule antagonists of the TGF-beta/Smad signaling pathway - cell viability counter screen (AID 1346824); also: nearly all actives have a fitted effect of over 50% in size
How it was run: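 SBE-bla HEK 293T cells were plated overnight at 37 C, then given compounds in DMSO plus TGF-beta1 (added as 0.25 ng/mL solution) for 5 hr. After the bla read, CellTiter-Glo was added to the same wells and luminescence read after 30 min at room temperature.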

[9] = qHTS assay to identify small molecule agonists of the TGF-beta/Smad signaling pathway - cell viability counter screen (AID 1346829); also: nearly all actives have a fitted effect of over 45% in size
How it was run: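 Here the cytotoxicity of library compounds is measured in SBE-bla HEK 293T cells treated for 5 hr, using CellTiter-Glo added to wells already read for the beta-lactamase reporter.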

[10] = qHTS assay to identify small molecule agonists of the TGF-beta/Smad signaling pathway (AID 1346859; active = well fitted activation curve with a large enough effect in the signal ratio in the repeat runs, not every such curve was filed as active; inconclusive = weak or mixed curves; the % refers to the signal ratio); details: SBE-bla HEK293T, TGF-beta/Smad beta-lactamase reporter, 5 h; activation: at 76.8 µM (top of the series) unless noted
How it was run: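 Dual-wavelength fluorescence (460/530 nm emission) quantified beta-lactamase expression under the Smad binding element in HEK 293T cells following 5 hr compound treatment at 37 C.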

[11] = qHTS assay to identify small molecule antagonists of the TGF-beta/Smad signaling pathway (AID 1346924; active = well fitted inhibition curve with a large enough effect in the signal ratio in the repeat runs, not every such curve was filed as active; inconclusive = weak or mixed curves; the % refers to the signal ratio); details: SBE-bla HEK293T, TGF-beta/Smad reporter, beta-lactamase ratio; activity, negative = inhibition: at 76.8 µM (top of the series) unless noted
How it was run: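 Read-out was FRET-substrate fluorescence (405 nm excitation; 460 and 530 nm emission) after 2 h at room temperature. Before that, cells carrying a Smad-binding-element beta-lactamase reporter in HEK 293T had been stimulated 5 h at 37 C with TGF-beta1 (0.25 ng/mL addition solution) in the presence of test compound.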

[12] = qHTS assay to identify small molecule agonists or antagonists of the thyroid stimulating hormone receptor (TSHR) signaling pathway - wild type cell line counter screen (AID 1259384; calls by dose curve); details: HEK293 wild type, cAMP HTRF counter-screen; cAMP activity change: at 92.4 µM (top of the series), active compounds read high unless noted
How it was run: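 Wild-type HEK293 cells were plated 18 h at 37 C/5% CO2, pin-dosed with compound plus Ro20-1724 medium, held 30 min at room temperature, then given cAMP-d2 and anti-cAMP-cryptate; fluorescence was read after 1 h. Fifteen concentrations, triplicate.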

[13] = qHTS assay to identify small molecule agonists of the estrogen receptor alpha (ER-alpha) signaling pathway in the presence of an antagonist - cell viability counter screen (AID 1259386);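 also: cells exposed to compounds for 22 h at 37 °C before the viability read; nearly all actives have a fitted effect of over 30% in size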
How it was run: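 Using estrogen-depleted VM7Luc4E2 cells, the 15-concentration compound series was applied together with 10.0nM ICI-182,780 and incubated 22hr at 37C/5% CO2. Cell viability was then scored by CellTiter-Fluor.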

[14] = qHTS assay to identify small molecule agonists of the androgen receptor (AR) signaling pathway in the presence of an antagonist - cell viability counter screen (AID 1259379); also: nearly all actives have a fitted effect of over 25% in size
How it was run: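 Each compound was tested at 15 concentrations on MDA-kb2 cells in the presence of 3.0uM nilutamide. Viability was measured by CellTiter-Fluor fluorescence after a 16 hr incubation at 37C in a CO2-free atmosphere.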

[15] = molecular target: Progesterone receptor (Homo sapiens) (UniProt P06401); assay: qHTS assay to identify small molecule agonists of the progesterone receptor (PR) signaling pathway (AID 1346784; calls by dose curve; also: nearly all actives have a fitted effect of over 30% in size; as to activation: % is scaled to controls: 0 for no effect and ±100 for the full control effect); details: PR-UAS-bla HEK293T, beta-lactamase FRET ratio, 16 h; activation: at 92.4 µM (top of the series) unless noted
How it was run: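 The screen uses PR-UAS-bla HEK 293T cells in charcoal-stripped serum (2%). Compounds are applied for 16 hr at 37C after a 6 hr pre-incubation, and reporter activity is detected with a FRET beta-lactamase substrate after 2 hr at room temperature.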
Potency is read from the fitted curve at half-maximal effect; tags tell the direction and shape of the fitted curve or compound fluorescence and quenching.

Cc1cc(=O)c2c(O)c3c(O)cc(=O)c4c3c3c(cc(O)c1c23)C(C)(C)C=4O
inconclusive: activity, negative = inhibition [1] -63.5% [at 19 µM] | Potency [2] 0.259 µM [cytotoxic, full curve] | Potency [3] 0.184 µM [cytotoxic, full curve] | Potency [4] 14.6 µM | activity change, negative = inhibition [5] -58.5% [at 18.9 µM] | Potency [6] 0.116 µM [cytotoxic, partial curve] | Potency [7] 0.58 µM [rising, full curve, poor fit] | Potency [8] 1.04 µM [cytotoxic, full curve] | Potency [9] 1.31 µM [cytotoxic, full curve] | Potency [10] 4.14 µM | Potency [11] 3.29 µM [rising, full curve]

Nc1c(N=Nc2ccc(-c3ccc(N=Nc4cc(S(=O)(=O)O)c5ccccc5c4N)cc3)cc2)cc(S(=O)(=O)O)c2ccccc12
active: Potency [13] 17.2 µM
inactive: Potency [5]
inconclusive: Potency [1] 54.4 µM [inhibitor, partial curve] | Potency [2] 21.7 µM [rising, partial curve, poor fit] | Potency [12] 68.5 µM [falling, single point] | Potency [4] 68.5 µM [falling, single point] | activity, negative = inhibition [11] 9.24%

COC(=O)C(C)Oc1ccc(Oc2ncc(C(F)(F)F)cc2Cl)cc1 (stereo unspecified)
inconclusive: activity, negative = inhibition [1] -33.1% | Potency [2] 27.7 µM [cytotoxic, partial curve] | Potency [4] 34.8 µM [falling, partial curve] | Potency [5] 69.5 µM [rising, single point] | Potency [6] 48.6 µM [rising, partial curve, poor fit] | Potency [7] 68.6 µM [rising, single point]

CN(C)CCC=C1c2ccccc2C=Cc2ccccc21
inconclusive: activity, negative = inhibition [1] -58.5% [at 42.5 µM] | Potency [14] 26.6 µM [cytotoxic, single point] | activity change, negative = inhibition [5] -28.8% [at 42.5 µM]
active: Potency [4] 29.8 µM

CC(=O)Oc1ccc(C(=C2CCCCC2)c2ccc(OC(C)=O)cc2)cc1
inactive: Potency [3] | Potency [7]
active: Potency [1] 0.0106 µM | Potency [5] 13.3 µM
inconclusive: Potency [2] 33.5 µM [cytotoxic, single point] | Potency [6] 33.5 µM [cytotoxic, single point]

CC1CCCCN1CCCOC(=O)c1ccc(OC2CCCCC2)cc1 (stereo unspecified)
inconclusive: Potency [1] 33.5 µM [inhibitor, single point] | Potency [13] 15 µM [cytotoxic, partial curve] | activity change, negative = inhibition [5] -24.3% [at 42.5 µM]
active: Potency [14] 26.6 µM

CCC1NC(=O)c2cc(S(N)(=O)=O)c(Cl)cc2N1 (stereo unspecified)
inconclusive: Potency [2] 0.106 µM [cytotoxic, single point]
inactive: Potency [1]

Cc1ccc(C(C)C)c(O)c1
inactive: Potency [15]
inconclusive: activity, negative = inhibition [1] 18.2% [at 42.5 µM] | Potency [2] 30.6 µM [cytotoxic, single point]

CCCCCCCC(=O)[O-].CCCCCCCC(=O)[O-].[Zn+2]
inactive: Potency [1] | Potency [2]

CC(=O)Oc1ccc(C2(c3ccc(OC(C)=O)cc3)Oc3ccccc3NC2=O)cc1
inconclusive: Potency [2] 16.8 µM [cytotoxic, partial curve] | Potency [4] 5.31 µM [falling, full curve] | Potency [15] 0.0422 µM [falling, full curve] | Potency [6] 8.41 µM [rising, partial curve, poor fit] | Potency [7] 8.41 µM [rising, partial curve] | activity, negative = inhibition [11] 3.98% [at 35.3 µM]
active: Potency [1] 1.88 µM | Potency [5] 21.1 µM

C=CCN1C[C@H](C(=O)N(CCCN(C)C)C(=O)NCC)C[C@@H]2c3cccc4[nH]cc(c34)C[C@H]21
inconclusive: activity, negative = inhibition [1] -21.6% [at 42.5 µM] | Potency [14] 16.8 µM [cytotoxic, partial curve] | Potency [4] 26.6 µM [falling, partial curve] | Potency [13] 16.8 µM [cytotoxic, partial curve] | Potency [7] 33.5 µM [cytotoxic]

O=c1[nH]c(=O)n([C@H]2CCCO2)cc1F
inconclusive: activity, negative = inhibition [1] 23.6% [at 42.5 µM] | Potency [2] 33.5 µM [cytotoxic, single point]

C=CC(=O)OCC1CC2CC1C1CCC(COC(=O)C=C)C21 (stereo unspecified)
inconclusive: Potency [1] 54.5 µM [rising, partial curve] | Potency [2] 27.3 µM [cytotoxic, full curve, poor fit] | Potency [4] 68.6 µM [falling, partial curve] | activation [15] -18.8% | Potency [5] 68.6 µM [falling, single point] | Potency [11] 61.6 µM [rising, partial curve, poor fit]
